This passage reports AlphaScreen luminescence signal results from the supplement of paper PMC12423691.

This is one part of the list. Binding of human transcription factors and regulators to the viral nucleoprotein by AlphaScreen, crude cell-free proteins, amounts not normalised, one pass. Fold of the Venus control; higher = more signal. No active / inactive call. Single-pass screen; sequences are the whole Swiss-Prot entries looked up by name.

Sequences and labels used below:
B1: ANKRD30A, Q9BXX3 (protein)
chain: MEEISAAAVKVVPGPERPSPFSQLVYTSNDSYIVHSGDLRKIHKAASRGQVRKLEKMTKRKKTINLNIQDAQKRTALHWACVNGHEEVVTFLVDRKCQLDVLDGEHRTPLMKALQCHQEACANILIDSGADINLVDVYGNTALHYAVYSEILSVVAKLLSHGAVIEVHNKASLTPLLLSITKRSEQIVEFLLIKNANANAVNKYKCTALMLAVCHGSSEIVGMLLQQNVDVFAADICGVTAEHYAVTCGFHHIHEQIMEYIRKLSKNHQNTNPEGTSAGTPDEAAPLAERTPDTAESLVEKTPDEAAPLVERTPDTAESLVEKTPDEAASLVEGTSDKIQCLEKATSGKFEQSAEETPREITSPAKETSEKFTWPAKGRPRKIAWEKKEDTPREIMSPAKETSEKFTWAAKGRPRKIAWEKKETPVKTGCVARVTSNKTKVLEKGRSKMIACPTKESSTKASANDQRFPSESKQEEDEEYSCDSRSLFESSAKIQVCIPESIYQKVMEINREVEEPPKKPSAFKPAIEMQNSVPNKAFELKNEQTLRADPMFPPESKQKDYEENSWDSESLCETVSQKDVCLPKATHQKEIDKINGKLEESPNKDGLLKATCGMKVSIPTKALELKDMQTFKAEPPGKPSAFEPATEMQKSVPNKALELKNEQTLRADEILPSESKQKDYEENSWDTESLCETVSQKDVCLPKAAHQKEIDKINGKLEGSPVKDGLLKANCGMKVSIPTKALELMDMQTFKAEPPEKPSAFEPAIEMQKSVPNKALELKNEQTLRADEILPSESKQKDYEESSWDSESLCETVSQKDVCLPKATHQKEIDKINGKLEESPDNDGFLKAPCRMKVSIPTKALELMDMQTFKAEPPEKPSAFEPAIEMQKSVPNKALELKNEQTLRADQMFPSESKQKKVEENSWDSESLRETVSQKDVCVPKATHQKEMDKISGKLEDSTSLSKILDTVHSCERARELQKDHCEQRTGKMEQMKKKFCVLKKKLSEAKEIKSQLENQKVKWEQELCSVRLTLNQEEEKRRNADILNEKIREELGRIEEQHRKELEVKQQLEQALRIQDIELKSVESNLNQVSHTHENENYLLHENCMLKKEIAMLKLEIATLKHQYQEKENKYFEDIKILKEKNAELQMTLKLKEESLTKRASQYSGQLKVLIAENTMLTSKLKEKQDKEILEAEIESHHPRLASAVQDHDQIVTSRKSQEPAFHIAGDACLQRKMNVDVSSTIYNNEVLHQPLSEAQRKSKSLKINLNYAGDALRENTLVSEHAQRDQRETQCQMKEAEHMYQNEQDNVNKHTEQQESLDQKLFQLQSKNMWLQQQLVHAHKKADNKSKITIDIHFLERKMQHHLLKEKNEEIFNYNNHLKNRIYQYEKEKAETENS
B2: ZSCAN29, Q8IWY8 (protein)
chain: MMAKSALRENGTNSETFRQRFRRFHYQEVAGPREAFSQLWELCCRWLRPEVRTKEQIVELLVLEQFLTVLPGEIQNWVQEQCPENGEEAVTLVEDLEREPGRPRSSVTVSVKGQEVRLEKMTPPKSSQELLSVRQESVEPQPRGVPKKERARSPDLGPQEQMNPKEKLKPFQRSGLPFPKSGVVSRLEQGEPWIPDLLGSKEKELPSGSHIGDRRVHADLLPSKKDRRSWVEQDHWSFEDEKVAGVHWGYEETRTLLAILSQTEFYEALRNCHRNSQVYGAVAERLREYGFLRTLEQCRTKFKGLQKSYRKVKSGHPPETCPFFEEMEALMSAQVIALPSNGLEAAASHSGLVGSDAETEEPGQRGWQHEEGAEEAVAQESDSDDMDLEATPQDPNSAAPVVFRSPGGVHWGYEETKTYLAILSETQFYEALRNCHRNSQLYGAVAERLWEYGFLRTPEQCRTKFKSLQTSYRKVKNGQAPETCPFFEEMDALVSVRVAAPPNDGQEETASCPVQGTSEAEAQKQAEEADEATEEDSDDDEEDTEIPPGAVITRAPVLFQSPRGFEAGFENEDNSKRDISEEVQLHRTLLARSERKIPRYLHQGKGNESDCRSGRQWAKTSGEKRGKLTLPEKSLSEVLSQQRPCLGERPYKYLKYSKSFGPNSLLMHQVSHQVENPYKCADCGKSFSRSARLIRHRRIHTGEKPYKCLDCGKSFRDSSNFITHRRIHTGEKPYQCGECGKCFNQSSSLIIHQRTHTGEKPYQCEECGKSFNNSSHFSAHRRIHTGERPHVCPDCGKSFSKSSDLRAHHRTHTGEKPYGCHDCGKCFSKSSALNKHGEIHAREKLLTQSAPK
B3: RFX2, P48378 (protein)
chain: MQNSEGGADSPASVALRPSAAAPPVPASPQRVLVQAASSNPKGAQMQPISLPRVQQVPQQVQPVQHVYPAQVQYVEGGDAVYTNGAIRTAYTYNPEPQMYAPSSTASYFEAPGGAQVTVAASSPPAVPSHSMVGITMDVGGSPIVSSAGAYLIHGGMDSTRHSLAHTSRSSPATLEMAIENLQKSEGITSHKSGLLNSHLQWLLDNYETAEGVSLPRSSLYNHYLRHCQEHKLDPVNAASFGKLIRSVFMGLRTRRLGTRGNSKYHYYGIRLKPDSPLNRLQEDTQYMAMRQQPMHQKPRYRPAQKTDSLGDSGSHSGLHSTPEQTMAVQSQHHQQYIDVSHVFPEFPAPDLGSFLLQDGVTLHDVKALQLVYRRHCEATVDVVMNLQFHYIEKLWLSFWNSKASSSDGPTSLPASDEDPEGAVLPKDKLISLCQCDPILRWMRSCDHILYQALVEILIPDVLRPVPSTLTQAIRNFAKSLEGWLTNAMSDFPQQVIQTKVGVVSAFAQTLRRYTSLNHLAQAARAVLQNTSQINQMLSDLNRVDFANVQEQASWVCQCEESVVQRLEQDFKLTLQQQSSLDQWASWLDSVVTQVLKQHAGSPSFPKAARQFLLKWSFYSSMVIRDLTLRSAASFGSFHLIRLLYDEYMFYLVEHRVAEATGETPIAVMGEFNDLASLSLTLLDKDDMGDEQRGSEAGPDARSLGEPLVKRERSDPNHSLQGI
B4: EVX1, P49640 (protein)
chain: MESRKDMVVFLDGGQLGTLVGKRVSNLSEAVGSPLPEPPEKMVPRGCLSPRAVPPATRERGGGGPEEEPVDGLAGSAAGPGAEPQVAGAAMLGPGPPAPSVDSLSGQGQPSSSDTESDFYEEIEVSCTPDCATGNAEYQHSKGSGSEALVGSPNGGSETPKSNGGSGGGGSQGTLACSASDQMRRYRTAFTREQIARLEKEFYRENYVSRPRRCELAAALNLPETTIKVWFQNRRMKDKRQRLAMTWPHPADPAFYTYMMSHAAAAGGLPYPFPSHLPLPYYSPVGLGAASAASAAASPFSGSLRPLDTFRVLSQPYPRPELLCAFRHPPLYPGPAHGLGASAGGPCSCLACHSGPANGLAPRAAAASDFTCASTSRSDSFLTFAPSVLSKASSVALDQREEVPLTR

The test concerns the target nucleoprotein N of Crimean-Congo hemorrhagic fever virus. The experiment in a line: AlphaScreen luminescence signal relative to Venus negative control (fold); higher = stronger binding to CCHFV N. As to the method:
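AlphaScreen binding of cell-free made, FLAG-GST-tagged human transcription factors and regulators (crude translation products) to biotinylated N protein; signal as fold of the FLAG-GST-Venus control. One pass.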
Background: Alpha assays give light when donor and acceptor beads are brought close together.
The molecule B1 displayed an AlphaScreen luminescence signal of 2.74. With B2 the figure was 4.09; with B3, 2.88; with B4, 1.58.
